# Experimental data: the supplement of paper PMC8728848
# The other results are listed elsewhere or left out.
# Key:
# Test in all cases: glycan array binding signal (z-score within array); higher = stronger binding
# Conditions in all cases: glycan notation: IUPAC condensed, linker removed
# [1] = target: Gal(b1-4)GlcNAc(b1-3)Gal(b1-4)Glc
# Summary of the method: (§1)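 Negative Z-scores can be read as non-binding. The Z-score is calculated within each array and then averaged across arrays of one protein sequence at different concentrations or buffers and across linkers. Arrays, 3228 in all, were curated from the Consortium for Functional Glycomics database and kept only where the protein sequence was available.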
# [2] = target: Gal(b1-4)GlcNAc(b1-3)Gal(b1-4)GlcNAc
# Summary of the method: as §1
# [3] = target: Gal(b1-4)GlcNAc(b1-3)Gal(b1-4)GlcNAc(b1-2)Man(a1-3)[Gal(b1-4)GlcNAc(b1-3)Gal(b1-4)GlcNAc(b1-2)Man(a1-6)]Man(b1-4)GlcNAc(b1-4)GlcNAc
# Summary of the method: as §1
# [4] = target: Gal(b1-4)GlcNAc(b1-3)Gal(b1-4)GlcNAc(b1-2)Man(a1-3)[Gal(b1-4)GlcNAc(b1-3)Gal(b1-4)GlcNAc(b1-2)Man(a1-6)]Man(b1-4)GlcNAc(b1-4)[Fuc(a1-6)]GlcNAc
# Summary of the method: as §1
# [5] = target: Gal(b1-4)GlcNAc(b1-3)Gal(b1-4)GlcNAc(b1-2)[Gal(b1-4)GlcNAc(b1-3)Gal(b1-4)GlcNAc(b1-6)]Man(a1-6)[Gal(b1-4)GlcNAc(b1-3)Gal(b1-4)GlcNAc(b1-2)Man(a1-3)]Man(b1-4)GlcNAc(b1-4)GlcNAc
# Summary of the method: as §1
# [6] = target: Gal(b1-4)GlcNAc(b1-3)Gal(b1-4)GlcNAc(b1-2)[Gal(b1-4)GlcNAc(b1-3)Gal(b1-4)GlcNAc(b1-6)]Man(a1-6)[Gal(b1-4)GlcNAc(b1-3)Gal(b1-4)GlcNAc(b1-2)Man(a1-3)]Man(b1-4)GlcNAc(b1-4)[Fuc(a1-6)]GlcNAc
# Summary of the method: as §1
# [7] = target: Gal(b1-4)GlcNAc(b1-3)Gal(b1-4)GlcNAc(b1-3)Gal(b1-4)GlcNAc
# Summary of the method: as §1
# [8] = target: Gal(b1-4)GlcNAc(b1-3)Gal(b1-4)GlcNAc(b1-3)Gal(b1-4)GlcNAc(b1-2)Man(a1-3)[Gal(b1-4)GlcNAc(b1-3)Gal(b1-4)GlcNAc(b1-3)Gal(b1-4)GlcNAc(b1-2)Man(a1-6)]Man(b1-4)GlcNAc(b1-4)GlcNAc
# Summary of the method: as §1
# [9] = target: Gal(b1-4)GlcNAc(b1-3)Gal(b1-4)GlcNAc(b1-3)Gal(b1-4)GlcNAc(b1-2)Man(a1-3)[Gal(b1-4)GlcNAc(b1-3)Gal(b1-4)GlcNAc(b1-3)Gal(b1-4)GlcNAc(b1-2)Man(a1-6)]Man(b1-4)GlcNAc(b1-4)[Fuc(a1-6)]GlcNAc
# Summary of the method: as §1
# [10] = target: Gal(b1-4)GlcNAc(b1-3)Gal(b1-4)GlcNAc(b1-3)Gal(b1-4)GlcNAc(b1-2)[Gal(b1-4)GlcNAc(b1-3)Gal(b1-4)GlcNAc(b1-3)Gal(b1-4)GlcNAc(b1-6)]Man(a1-6)[Gal(b1-4)GlcNAc(b1-3)Gal(b1-4)GlcNAc(b1-3)Gal(b1-4)GlcNAc(b1-2)Man(a1-3)]Man(b1-4)GlcNAc(b1-4)[Fuc(a1-6)]GlcNAc
# Summary of the method: as §1
# [11] = target: Gal(b1-4)GlcNAc(b1-3)Gal(b1-4)GlcNAc(b1-3)Gal(b1-4)GlcNAc(b1-3)Gal(b1-4)GlcNAc(b1-2)Man(a1-3)[Gal(b1-4)GlcNAc(b1-3)Gal(b1-4)GlcNAc(b1-3)Gal(b1-4)GlcNAc(b1-3)Gal(b1-4)GlcNAc(b1-2)Man(a1-6)]Man(b1-4)GlcNAc(b1-4)GlcNAc
# Summary of the method: as §1
# [12] = target: Gal(b1-4)GlcNAc(b1-3)Gal(b1-4)GlcNAc(b1-3)Gal(b1-4)GlcNAc(b1-3)Gal(b1-4)GlcNAc(b1-2)Man(a1-3)[Gal(b1-4)GlcNAc(b1-3)Gal(b1-4)GlcNAc(b1-3)Gal(b1-4)GlcNAc(b1-3)Gal(b1-4)GlcNAc(b1-2)Man(a1-6)]Man(b1-4)GlcNAc(b1-4)[Fuc(a1-6)]GlcNAc
# Summary of the method: as §1
# [13] = target: Gal(b1-4)GlcNAc(b1-3)Gal(b1-4)GlcNAc(b1-3)Gal(b1-4)GlcNAc(b1-3)Gal(b1-4)GlcNAc(b1-2)[Gal(b1-4)GlcNAc(b1-3)Gal(b1-4)GlcNAc(b1-3)Gal(b1-4)GlcNAc(b1-3)Gal(b1-4)GlcNAc(b1-6)]Man(a1-6)[Gal(b1-4)GlcNAc(b1-3)Gal(b1-4)GlcNAc(b1-3)Gal(b1-4)GlcNAc(b1-3)Gal(b1-4)GlcNAc(b1-2)Man(a1-3)]Man(b1-4)GlcNAc(b1-4)[Fuc(a1-6)]GlcNAc
# Summary of the method: as §1
# [14] = target: Gal(b1-4)GlcNAc(b1-3)Gal(b1-4)GlcNAc(b1-3)Gal(b1-4)GlcNAc(b1-3)Gal(b1-4)GlcNAc(b1-3)Gal(b1-4)GlcNAc(b1-2)Man(a1-3)[Gal(b1-4)GlcNAc(b1-3)Gal(b1-4)GlcNAc(b1-3)Gal(b1-4)GlcNAc(b1-3)Gal(b1-4)GlcNAc(b1-3)Gal(b1-4)GlcNAc(b1-2)Man(a1-6)]Man(b1-4)GlcNAc(b1-4)GlcNAc
# Summary of the method: as §1
# [15] = target: Gal(b1-4)GlcNAc(b1-3)Gal(b1-4)GlcNAc(b1-3)Gal(b1-4)GlcNAc(b1-3)Gal(b1-4)GlcNAc(b1-3)Gal(b1-4)GlcNAc(b1-2)Man(a1-3)[Gal(b1-4)GlcNAc(b1-3)Gal(b1-4)GlcNAc(b1-3)Gal(b1-4)GlcNAc(b1-3)Gal(b1-4)GlcNAc(b1-3)Gal(b1-4)GlcNAc(b1-2)Man(a1-6)]Man(b1-4)GlcNAc(b1-4)[Fuc(a1-6)]GlcNAc
# Summary of the method: as §1
# [16] = target: Gal(b1-4)GlcNAc(b1-3)Gal(b1-4)GlcNAc(b1-3)Gal(b1-4)GlcNAc(b1-3)Gal(b1-4)GlcNAc(b1-3)Gal(b1-4)GlcNAc(b1-2)[Gal(b1-4)GlcNAc(b1-3)Gal(b1-4)GlcNAc(b1-3)Gal(b1-4)GlcNAc(b1-3)Gal(b1-4)GlcNAc(b1-3)Gal(b1-4)GlcNAc(b1-6)]Man(a1-6)[Gal(b1-4)GlcNAc(b1-3)Gal(b1-4)GlcNAc(b1-3)Gal(b1-4)GlcNAc(b1-3)Gal(b1-4)GlcNAc(b1-3)Gal(b1-4)GlcNAc(b1-2)Man(a1-3)]Man(b1-4)GlcNAc(b1-4)[Fuc(a1-6)]GlcNAc
# Summary of the method: as §1
# [17] = target: Gal(b1-4)GlcNAc(b1-3)Gal(b1-4)GlcNAc(b1-3)Gal(b1-4)GlcNAc(b1-3)Gal(b1-4)GlcNAc(b1-3)Gal(b1-4)GlcNAc(b1-3)Gal(b1-4)GlcNAc(b1-2)Man(a1-3)[Gal(b1-4)GlcNAc(b1-3)Gal(b1-4)GlcNAc(b1-3)Gal(b1-4)GlcNAc(b1-3)Gal(b1-4)GlcNAc(b1-3)Gal(b1-4)GlcNAc(b1-3)Gal(b1-4)GlcNAc(b1-2)Man(a1-6)]Man(b1-4)GlcNAc(b1-4)GlcNAc
# Summary of the method: as §1
# [18] = target: Gal(b1-4)GlcNAc(b1-3)Gal(b1-4)GlcNAc(b1-3)GalNAc
# Summary of the method: as §1
# [19] = target: Gal(b1-4)GlcNAc(b1-3)Gal(b1-4)GlcNAc(b1-3)[Gal(b1-4)GlcNAc(b1-3)Gal(b1-4)GlcNAc(b1-6)]GalNAc
# Summary of the method: as §1
binder,measurement,setting,value
PX14367B-bvu-516-23-516 (Bacteroides vulgatus) (protein) LDTIPTTYVDAGSVFGKTGDAEKVLNGGWNYLMETFNSYANPGYGAMLRANDAMGSDVVLNSKYGFRTHNEFSAIYGKGGTNTLSWLLAYRVINDCNGVLDNIDAAEGTQADRNRIKGQALALRGFLYLHLASCYSFAIDKDPDAVCAPIYTQSTDETIAAEGKPASSVSEVYAQSINDLEEALELIPETYVRDAKHKIDNEVVLGILSRACLYARQWEKAKTYSDKLLAKDNYLMTESEYKAGFNSVDNKEWIWGHAQTNDQSNASYQFHYLDTTTKGSYYYSFNVDPYFRDLFEDGDYRKEMLFWATDPGADVESAAYVWMRNSKFRFRDIENQLGDIVLMRVAEIYLINAEAKAHLNDPDAINKLNDLKTARGAKTIHTNLSQQDLLETIWLERRKELWGEGFSLIDIIRNQQTVVRNAYPEGPIDYIYTDENGQTHTLKKKTQGHRFFNFPDKSAFCPNSKYYLYRITDSEELANKNLYKDHPKLSIYTK,glycan array binding signal (z-score),[1],-0.243
same,glycan array binding signal (z-score),[2],-0.337
same,glycan array binding signal (z-score),[3],-0.115
same,glycan array binding signal (z-score),[4],0.011
same,glycan array binding signal (z-score),[5],0.488
same,glycan array binding signal (z-score),[6],0.037
same,glycan array binding signal (z-score),[7],-0.311
same,glycan array binding signal (z-score),[8],0.186
same,glycan array binding signal (z-score),[9],2.6
same,glycan array binding signal (z-score),[10],7.91
same,glycan array binding signal (z-score),[11],0.812
same,glycan array binding signal (z-score),[12],0.567
same,glycan array binding signal (z-score),[13],0.603
same,glycan array binding signal (z-score),[14],0.433
same,glycan array binding signal (z-score),[15],0.122
same,glycan array binding signal (z-score),[16],3.48
same,glycan array binding signal (z-score),[17],7.87
same,glycan array binding signal (z-score),[18],-0.231
same,glycan array binding signal (z-score),[19],-0.24
